Measurements: patent US20230226146A1 (published 2023)

Key:
GDF11 = target: T1, GDF11 (UniProt O95390 299-407); assay: Biacore SPR
T1 chain: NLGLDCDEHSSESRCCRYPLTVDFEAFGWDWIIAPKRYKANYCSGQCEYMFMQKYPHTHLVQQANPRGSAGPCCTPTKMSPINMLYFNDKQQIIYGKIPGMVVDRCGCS

activin A = target: T2, activin A (UniProt P08476 311-426); assay: Biacore SPR
T2 chain: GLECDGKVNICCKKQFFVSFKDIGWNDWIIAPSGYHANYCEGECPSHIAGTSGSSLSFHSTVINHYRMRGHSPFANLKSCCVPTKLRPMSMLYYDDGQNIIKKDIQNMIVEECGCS

Kd (GDF11): 9.96 nM | Kd (activin A): 0.005 nM
B1: ActRIIA-hFc (Fc fusion)
chain: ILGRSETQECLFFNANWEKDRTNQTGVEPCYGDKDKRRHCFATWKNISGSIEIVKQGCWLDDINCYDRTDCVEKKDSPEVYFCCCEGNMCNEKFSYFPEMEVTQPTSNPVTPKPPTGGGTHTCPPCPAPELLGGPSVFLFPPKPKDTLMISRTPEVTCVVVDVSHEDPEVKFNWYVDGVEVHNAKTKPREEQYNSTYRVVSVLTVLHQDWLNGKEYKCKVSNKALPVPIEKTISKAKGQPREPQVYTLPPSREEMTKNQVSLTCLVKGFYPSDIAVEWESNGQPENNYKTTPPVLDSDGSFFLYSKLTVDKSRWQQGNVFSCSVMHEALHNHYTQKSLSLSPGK
